Assay results published in PubChem BioAssay AID360 (National Center for Advancing Translational Sciences (NCATS), 2006).
Screen size: about 48,000 compounds; about 550 (1.1%) were called active. Not shown: some 4% with an inconclusive outcome. Rule as the data show it: active = potency below about 15 µM; inconclusive = mostly about 16 µM to 33 µM; inactive = weaker than that. The list shows a part of the results.

target: Lysosomal acid glucosylceramidase (Homo sapiens) (UniProt P04062); experiment: Glucocerebrosidase; details: purified enzyme, resorufin glucoside fluorescence (screen aimed at inhibitors), 20 min; series mostly up to 77 µM;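 also: the screen sought inhibitors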
UniProt P04062, sequence (P04062 whole entry, looked up): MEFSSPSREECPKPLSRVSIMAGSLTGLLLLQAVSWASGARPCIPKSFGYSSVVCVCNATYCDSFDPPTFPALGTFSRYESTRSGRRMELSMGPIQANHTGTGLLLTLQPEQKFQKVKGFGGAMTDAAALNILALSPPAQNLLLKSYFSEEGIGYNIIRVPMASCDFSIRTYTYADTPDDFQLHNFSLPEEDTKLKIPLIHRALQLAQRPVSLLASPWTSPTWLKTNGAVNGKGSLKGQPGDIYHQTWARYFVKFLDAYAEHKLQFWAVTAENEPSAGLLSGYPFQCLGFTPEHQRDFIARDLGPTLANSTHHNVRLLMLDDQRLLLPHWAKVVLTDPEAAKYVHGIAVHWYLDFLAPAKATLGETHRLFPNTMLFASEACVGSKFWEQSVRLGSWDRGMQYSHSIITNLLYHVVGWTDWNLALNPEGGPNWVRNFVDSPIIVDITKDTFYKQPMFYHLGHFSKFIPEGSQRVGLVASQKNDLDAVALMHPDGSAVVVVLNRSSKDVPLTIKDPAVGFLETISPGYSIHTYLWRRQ
In short: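 Compounds titrated against 0.2 nM normal enzyme, 30 uM resorufin beta-D-glucopyranoside substrate, citrate/phosphate buffer with taurocholate and tween-20, pH 5.9. Reaction ran 20 min at room temperature; fluorescence (Ex 548/Em 600) gave AC50.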
Potency is read from the fitted curve at half-maximal effect.

Potency, inactive:
COC(=O)c1cc(CSc2nnc(NC3CCCCC3)s2)oc1C > 76.9 µM
CCOc1ccccc1NC(=O)CSc1nnc(-c2ccccc2Cl)n1Cc1ccco1 > 76.9 µM
CCC(=O)c1ccc(OCC(=O)N2CCc3cc(OC)c(OC)cc3C2)cc1 > 76.9 µM
CS(=O)(=O)Nc1ccccc1C(=O)N1CCCC1 > 76.9 µM
COC(=O)Cn1c(=O)c2c(nc(Br)n2CC(=O)OC)n(C)c1=O > 76.9 µM
CCOCC(=O)Nc1ccccc1C(=O)OCC > 76.9 µM
C=CCn1c(=O)/c(=C/c2ccc(Cl)cc2)s/c1=C(/C#N)c1nnc2n1CCCCC2 > 76.9 µM
CCC(C)(C)NC(=O)CN(C(=O)c1snc(C(N)=O)c1N)c1ccc2c(c1)OCCO2 > 76.9 µM
O=C(CN1C2=NCCN2c2ccccc21)c1ccc(Br)cc1 > 76.9 µM
CCn1c(SCC(=O)N2CCc3ccccc3C2)nc2c1c(=O)n(C)c(=O)n2C > 76.9 µM
O=C(CN1C(=O)COc2ccccc21)N(Cc1ccccc1)Cc1ccccn1 > 76.9 µM
O=S(=O)(c1ccc(F)cc1)N1CCN(CC(O)COCc2cccs2)CC1 (stereo not drawn) > 76.9 µM
COc1cccc(OCc2nc3ncc(Br)cc3[nH]2)c1 > 76.9 µM
CC1(C)CC(=O)c2cn3c(nc2C1)nc1ccccc13 > 76.9 µM
O=C1N=C(N2CCOCC2)S/C1=C1\C(=O)N(Cc2ccccc2)c2ccc(Br)cc21 > 76.9 µM
O=C(CS(=O)(=O)Cc1ccccc1)Nc1cccnc1 > 76.9 µM
CCOC(=O)C1CCCN(C(=O)c2ccccc2NC(C)=O)C1 (stereo not drawn) > 76.9 µM
NC(=O)c1cc2ccc(O)cc2oc1=Nc1ccccc1
COC(=O)C1C2C=CC3(CN(C(C)c4ccc(OC)cc4)C(=O)C13)O2 (stereo not drawn) > 76.9 µM
COc1ccc(C(C)NC(=O)C2CCCO2)cc1OC (stereo not drawn) > 76.9 µM
CCOc1cc2c(cc1C(C)(C)C)NC(=O)CS2
Cc1cccc(NC(=O)CC2CCC2)c1 > 76.9 µM
CCCCn1c(N)c(N(CC)C(=O)c2ccc3c(c2)S(=O)(=O)c2ccccc2C3=O)c(=O)[nH]c1=O > 76.9 µM
O=c1cc(CN2CCOCC2)c2c(ccc3ccccc32)o1 > 76.9 µM
CCOc1cc([C@H]2[C@@H]3CCCC[C@]3(O)CCN2CC(=O)NCc2ccco2)ccc1O > 76.9 µM
Cc1cc(NC(=O)NC2CCCN2S(=O)(=O)c2ccc(Cl)cc2)no1 (stereo not drawn) > 76.9 µM
CC(=O)Nc1cccc(-c2nnc(SCc3ccccc3C#N)n2C)c1 > 76.9 µM
CCN(CC)C(=O)Cn1cnc2ccccc2c1=O > 76.9 µM
O=C(NCCCN1CCN(Cc2ccccc2)CC1)c1nnc(Cc2c(F)cccc2Cl)o1 > 76.9 µM
O=C(Nc1nccs1)C(NS(=O)(=O)c1ccc(Br)s1)c1ccccc1 (stereo not drawn) > 76.9 µM
CCOC(=O)CC(=O)CSc1nc(C)cc(-c2cccnc2)c1C#N > 76.9 µM
O=C(CS(=O)(=O)Cc1ccccc1)N1CCc2ccccc2C1 > 76.9 µM
CN(Cc1nc2ccccc2n1C)S(=O)(=O)c1ccc(Cl)cc1 > 76.9 µM
O=C(Nc1ccc2c(c1)OC1(CCCC1)O2)C1CC1
CCN1CCN(C(c2cccs2)C(C)NC(=O)c2ccccc2F)CC1 (stereo not drawn) > 76.9 µM
CCc1ccc(OC)c(S(=O)(=O)Nc2ccccc2C)c1 > 76.9 µM
CCN(CCCNC(=O)C1CCN(S(=O)(=O)CC)CC1)c1ccccc1 > 76.9 µM
Nc1cccc2cnccc12 > 76.9 µM
COc1ccc(NC(=O)N(Cc2cc3cc(OC)ccc3[nH]c2=O)CC2CCCO2)cc1 (stereo not drawn) > 76.9 µM
O=C(Nc1ccc(CN2CCCCC2)cc1)c1ccc(Br)o1 > 76.9 µM
COc1cccc(Oc2cnc(N)nc2-c2ccc(OC)cc2O)c1 > 76.9 µM
O=C(OCC(=O)N1CCCCC1)c1cc2ccccc2cc1O > 76.9 µM
O=C(C(NS(=O)(=O)c1cccs1)c1ccccc1)N1CCN(c2ccccc2)CC1 (stereo not drawn) > 76.9 µM
Cc1ccc(N2CCN(C(=O)N3CCCC3)CC2)cc1Cl > 76.9 µM
C=C(Cl)COC(=O)[C@H]1C2C=CC(C2)C1C(=O)O (stereo partly drawn) > 76.9 µM
O=C(Nc1nccs1)c1ccc(CSc2nnnn2-c2ccccc2)cc1 > 76.9 µM
COCCCn1c(-c2ccc(OC)cc2)nc2nc3ccccc3nc21 > 76.9 µM
COc1ccc(CCNC(=O)c2cc(-c3cc(C)c(C)cc3O)n[nH]2)cc1OC > 76.9 µM
CCc1ccc2c(COn3nnc4ccc(S(=O)(=O)N(C)C)cc43)cc(=O)oc2c1 > 76.9 µM
Cn1nnnc1SCCNCc1cccc2ccccc12 > 76.9 µM
CC1CCCN(CC(=O)Nc2ccc(S(=O)(=O)NC3CCCCC3)cc2)C1 (stereo not drawn)
COc1ccc(CC(=O)Nc2c3c(nn2-c2cccc(C)c2C)CS(=O)C3)cc1OC (stereo not drawn) > 76.9 µM
CC1CC(N(C(=O)c2ccco2)c2ccccc2)c2ccccc2N1 (stereo not drawn) > 76.9 µM
CCOC(=O)c1oc2c(CN3CCCCC3C)c(O)ccc2c(=O)c1-c1ccc(OC)c(OC)c1 (stereo not drawn) > 76.9 µM
CC(C)c1ccccc1NC(=O)c1ccco1 > 76.9 µM
COCCn1c(SCC(=O)NCCc2ccccc2)nnc1-c1ccco1 > 76.9 µM
O=C(Nn1cnnc1)c1cc(-c2ccccn2)nc2ccccc12 > 76.9 µM
O=C(Cn1nnc2c(cnn2-c2ccccc2)c1=O)NCc1cccs1 > 76.9 µM
O=C1CCCCCC1C1(O)C(=O)Nc2ccc(Br)cc21 (stereo not drawn) > 76.9 µM
COc1cc2c(cc1OC)CN(C(=O)COc1ccc(C)c(C)c1)CC2 > 76.9 µM
CCSc1nnc(NC(=O)CCNS(=O)(=O)c2cc(Br)cnc2N)s1 > 76.9 µM
c1csc(-c2cnc3ccccc3n2)c1 > 76.9 µM
CCCCCN(C(=O)NC(=O)NCCCC)S(C)(=O)=O > 76.9 µM
Cc1cnc(C(=O)OCC(=O)Nc2ccc(Cl)cc2Cl)cn1 > 76.9 µM
COc1cc(-c2nnc(COC(=O)C3c4ccccc4Oc4ccccc43)o2)cc(OC)c1OC > 76.9 µM
NCCCCCc1nnc(SCc2cccc(Cl)c2)o1
Cc1cccn2c(=O)c3cc(C(=O)N4CCc5ccccc54)n(C)c3nc12 > 76.9 µM
C=CCn1c(SCn2nnc3ccccc3c2=O)nnc1-c1ccc(F)cc1 > 76.9 µM
C=C(C)C1Cc2nc(N)nc(C)c2C1 (stereo not drawn) > 76.9 µM
CC1CCN(C(=O)c2ccc(C(=O)N3CCC(C)CC3)cc2)CC1 > 76.9 µM
O=c1cc(CSc2nnnn2-c2ccccc2)nc2nc[nH]n12 > 76.9 µM
CN1C(=O)C(=C2CCCCCC2)SC1=S > 76.9 µM
COc1ccc(C2C(C#N)=C(N)Oc3cc4c(cc32)OCO4)cc1 (stereo not drawn) > 76.9 µM
CCOC(=O)N1CCN(C(=O)C2CCN(S(C)(=O)=O)CC2)CC1 > 76.9 µM
CC1CCN(C(=O)c2cc(-c3ccc(Cl)c(Cl)c3)on2)CC1 > 76.9 µM
COC(=O)[C@H](C(C)C)n1c(C)c(C(C)=O)c(C(C)=O)c1C
COCCCNC(=O)C12CCC(C)(C(=O)C1)C2(C)C (stereo not drawn) > 76.9 µM
CC1=C2C(=O)OC(c3ccoc3)C2(C)CCC1 (stereo not drawn) > 76.9 µM
O=C(c1ccccc1C(=O)N1CCN(c2ccccc2)CC1)N1CCN(c2ccccc2)CC1 > 76.9 µM
Cc1ccc(C=NCc2ccncc2)c(O)c1 > 76.9 µM
COc1cc(NC(=O)Cc2cccs2)ccc1-n1cnnn1 > 76.9 µM
O=C(COC(=O)CNC(=O)c1ccco1)NCCN1C(=O)CSC1=O > 76.9 µM
Cc1cc(NC(=O)CSc2nc3ccccc3n2CC(=O)N2CC(C)CC(C)C2)no1 (stereo not drawn) > 76.9 µM
CCOc1cc2[nH]c(=O)n(CCCCC(=O)NCc3ccco3)c(=O)c2cc1OCC > 76.9 µM
COc1cccc(NC(=O)CSc2nnc(-c3cc(-c4ccccn4)nc4ccccc34)o2)c1 > 76.9 µM
O=C(CCS(=O)(=O)c1cccc2nsnc12)NCc1ccccc1 > 76.9 µM
O=C(CN1CCC(NC(=O)Nc2ccccc2-c2ccccc2)CC1)NCc1ccco1 > 15.4 µM
O=C(CSc1nnc(CNC(=O)c2cccs2)o1)NC1CCCCC1 > 76.9 µM
O=C(CSc1ncccn1)c1ccccc1Br > 76.9 µM
O=C(O)c1cc(S(=O)(=O)O)ccc1O > 76.9 µM
O=S(=O)(Nc1nc2ccccc2[nH]1)c1ccccc1 > 76.9 µM
COc1cccc(-c2nc(CSCC(=O)NCC3CCCO3)c(C)o2)c1 (stereo not drawn) > 76.9 µM
O=C(CC(c1ccccc1)c1cc(Cl)ccc1O)N1CCOCC1 (stereo not drawn) > 76.9 µM
